The subject of the assay is L1210 leukemia ip in BDF1 mice, survival T/C. Description: NCI In Vivo Anticancer Drug Screen. Data for tumor model L1210 Leukemia (intraperitoneal) in B6D2F1 (BDF1) mice. To be noted: endpoint: mean survival time, vehicle: saline, higher = longer survival.

Results on 3 compounds are retold here after PubChem BioAssay AID248 (DTP/NCI, 2004).

Toxic doses and inconclusive results are not listed. For part of its entries the source gives two or more results. This list holds those alone. There may be further records. The values listed for one entry differ for a reason that is not stated; dose, time, organism, isomer or construct need not be as stated for each record. What stands in brackets tells the records apart. The letters are not those of the source and start again with each entry.

For `CCCC(=O)NC1=C(N2CC2)C(=O)C(NC(=O)CCC)=C(N2CC2)C1=O`, where the note is “dose: 4.0 mg/kg/injection, schedule: Q01DX Z (ip)”, the T/C was 117 % of control and 167 % of control.

With `Nc1nc2nc(-c3ccccc3)nc(N)c2nc1-c1ccc(N(CCO)CCO)cc1`, the T/C (dose: 100.0 mg/kg/injection, schedule: Q01DX001 (ip)) is 96 % of control and 160 % of control.

On to `COC1OC(CO)C(O)C(NC(=O)N(C)N=O)C1O` (stereo not drawn), for which the T/C (dose: 150.0 mg/kg/injection, schedule: Q01DX009 (ip)) was 118 % of control [sample A] and 157 % of control [sample B].
